From ChEMBL document CHEMBL3871281, “Improved binding affinities of pyrrolidine derivatives as Mcl-1 inhibitors by modifying amino acid side chains” (Bioorg Med Chem, 2017)

Experiments:
[1] = target: Induced myeloid leukemia cell differentiation protein Mcl-1 (Homo sapiens, UniProt Q07820)
[2] = Antiproliferative activity against human PC3 cells measured after 48 hrs by MTT assay; assay type: functional, cell-based; conditions: PC-3, 48 h
[3] = target: Apoptosis regulator Bcl-2 (Homo sapiens, UniProt P10415); assay: Inhibition of 5-FAM-QEDIIRNIARHLAQVGDSMDRSIPPG binding to Bcl-2 (unknown origin) preincubated for 30 mins followed by FAM-labeled peptide addition measured after 20 mins by fluorescence polarization assay
[4] = Antiproliferative activity against human MDA-MB-231 cells measured after 48 hrs by MTT assay; assay type: functional, cell-based; conditions: MDA-MB-231, 48 h
[5] = Antiproliferative activity against human K562 cells measured after 48 hrs by MTT assay; assay type: functional, cell-based; conditions: K562, 48 h

Sequence of UniProt Q07820 (Q07820 whole entry): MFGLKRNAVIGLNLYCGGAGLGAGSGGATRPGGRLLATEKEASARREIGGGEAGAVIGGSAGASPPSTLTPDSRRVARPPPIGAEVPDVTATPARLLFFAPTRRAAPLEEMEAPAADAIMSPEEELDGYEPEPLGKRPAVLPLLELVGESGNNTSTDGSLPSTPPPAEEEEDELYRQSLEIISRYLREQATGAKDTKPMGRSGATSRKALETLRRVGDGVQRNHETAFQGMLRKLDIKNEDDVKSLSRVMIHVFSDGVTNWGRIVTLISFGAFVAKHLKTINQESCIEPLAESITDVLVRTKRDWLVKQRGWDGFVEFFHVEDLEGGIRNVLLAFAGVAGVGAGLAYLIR
Sequence of UniProt P10415 (P10415 whole entry): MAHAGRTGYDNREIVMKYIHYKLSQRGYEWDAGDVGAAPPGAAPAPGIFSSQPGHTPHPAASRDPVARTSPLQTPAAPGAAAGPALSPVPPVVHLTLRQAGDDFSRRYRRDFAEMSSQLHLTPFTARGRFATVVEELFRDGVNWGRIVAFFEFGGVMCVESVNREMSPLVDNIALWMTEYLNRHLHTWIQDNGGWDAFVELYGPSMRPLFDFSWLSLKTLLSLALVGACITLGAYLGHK

| SMILES | Ki [1] [µM] | Ki [3] [µM] | IC50 [2] [µM] | IC50 [4] [µM] | IC50 [5] [µM] |
| --- | --- | --- | --- | --- | --- |
| CC(C)COc1ccc(C[C@H](NC(=O)[C@@H]2C[C@H](Oc3ccc(-c4ccccc4)cc3)CN2C(=O)OC(C)(C)C)C(=O)NS(=O)(=O)c2ccccc2)cc1 | 2 | – | – | – | – |
| CCCOc1ccc(C[C@H](NC(=O)[C@@H]2C[C@H](Oc3ccc(-c4ccc(C)cc4)cc3)CN2C(=O)OC(C)(C)C)C(=O)NS(=O)(=O)c2ccc([N+](=O)[O-])cc2)cc1 | 0.9 | – | – | – | – |
| CC(C)Oc1ccc(C[C@H](NC(=O)[C@@H]2C[C@H](Oc3ccc(-c4ccccc4)cc3)CN2C(=O)OC(C)(C)C)C(=O)NS(=O)(=O)c2ccccc2)cc1 | 8.1 | – | – | – | – |
| Cc1ccc(-c2ccc(O[C@@H]3CN[C@H](C(=O)N[C@@H](Cc4ccccc4)C(=O)NS(=O)(=O)c4ccc(Cl)c([N+](=O)[O-])c4)C3)cc2)cc1 | 1.3 | – | – | – | – |
| Cc1ccc(-c2ccc(O[C@H]3C[C@@H](C(=O)N[C@@H](Cc4ccc(OCC(C)C)cc4)C(=O)NS(=O)(=O)c4ccc([N+](=O)[O-])cc4)N(C(=O)OC(C)(C)C)C3)cc2)cc1 | 0.79 | – | – | – | – |
| Cc1cc2c(C(C)C)c(O)c(O)c(C=O)c2c(O)c1-c1c(C)cc2c(C(C)C)c(O)c(O)c(C=O)c2c1O [GOSSYPOL] | – | – | 7.54 | 9.23 | 5.6 |

Second part, led by results:

| Ki [1] [µM] | Ki [3] [µM] | SMILES | IC50 [2] [µM] | IC50 [4] [µM] | IC50 [5] [µM] |
| --- | --- | --- | --- | --- | --- |
| – | 0.93 | CC(C)(C)OC(=O)N1C[C@@H](Oc2ccc(-c3ccccc3)cc2)C[C@H]1C(=O)N[C@@H](Cc1ccc(O[Si](C)(C)C(C)(C)C)cc1)C(=O)NS(=O)(=O)c1ccc(Cl)c([N+](=O)[O-])c1 | 10.2 | 23.4 | 17.3 |
| – | 0.68 | CC(C)(C)OC(=O)N1C[C@@H](Oc2ccc(-c3ccccc3)cc2)C[C@H]1C(=O)N[C@@H](Cc1ccc(OCc2ccc(Br)cc2)cc1)C(=O)NS(=O)(=O)c1ccc(Cl)c([N+](=O)[O-])c1 | 10.6 | 21.3 | 16.4 |
| – | 0.67 | CC(C)(C)OC(=O)N1C[C@@H](Oc2ccc(-c3ccc(Cl)cc3)cc2)C[C@H]1C(=O)N[C@@H](Cc1ccc(OCCc2ccccc2)cc1)C(=O)NS(=O)(=O)c1ccc(Cl)c([N+](=O)[O-])c1 | 13.2 | 25.2 | 17.8 |
| – | 0.75 | Cc1ccc(-c2ccc(O[C@H]3C[C@@H](C(=O)N[C@@H](Cc4ccc(OCc5ccc([N+](=O)[O-])cc5)cc4)C(=O)NS(=O)(=O)c4ccc(Cl)c([N+](=O)[O-])c4)N(C(=O)OC(C)(C)C)C3)cc2)cc1 | 8.45 | 16.9 | 16.6 |
| 4 | – | CCCOc1ccc(C[C@H](NC(=O)[C@@H]2C[C@H](Oc3ccc(-c4ccccc4)cc3)CN2C(=O)OC(C)(C)C)C(=O)NS(=O)(=O)c2ccccc2)cc1 | – | – | – |
